# Paper PMC4336329 (PLoS ONE, 2015)
# Hit rate of the full screen: of about 310,000 compounds, about 2,200 (0.71%) showed an effect of 50% or more. The effect is printed as a negative number. This is one part of the list.
# Biological target: human ether-à-go-go-related gene (hERG) potassium channel (human, UniProt Q12809)
# Experiment: primary screen, population patch clamp on CHO cells stably expressing hERG
# Sequence of human ether-à-go-go-related gene (hERG) potassium channel (Q12809 whole entry, looked up): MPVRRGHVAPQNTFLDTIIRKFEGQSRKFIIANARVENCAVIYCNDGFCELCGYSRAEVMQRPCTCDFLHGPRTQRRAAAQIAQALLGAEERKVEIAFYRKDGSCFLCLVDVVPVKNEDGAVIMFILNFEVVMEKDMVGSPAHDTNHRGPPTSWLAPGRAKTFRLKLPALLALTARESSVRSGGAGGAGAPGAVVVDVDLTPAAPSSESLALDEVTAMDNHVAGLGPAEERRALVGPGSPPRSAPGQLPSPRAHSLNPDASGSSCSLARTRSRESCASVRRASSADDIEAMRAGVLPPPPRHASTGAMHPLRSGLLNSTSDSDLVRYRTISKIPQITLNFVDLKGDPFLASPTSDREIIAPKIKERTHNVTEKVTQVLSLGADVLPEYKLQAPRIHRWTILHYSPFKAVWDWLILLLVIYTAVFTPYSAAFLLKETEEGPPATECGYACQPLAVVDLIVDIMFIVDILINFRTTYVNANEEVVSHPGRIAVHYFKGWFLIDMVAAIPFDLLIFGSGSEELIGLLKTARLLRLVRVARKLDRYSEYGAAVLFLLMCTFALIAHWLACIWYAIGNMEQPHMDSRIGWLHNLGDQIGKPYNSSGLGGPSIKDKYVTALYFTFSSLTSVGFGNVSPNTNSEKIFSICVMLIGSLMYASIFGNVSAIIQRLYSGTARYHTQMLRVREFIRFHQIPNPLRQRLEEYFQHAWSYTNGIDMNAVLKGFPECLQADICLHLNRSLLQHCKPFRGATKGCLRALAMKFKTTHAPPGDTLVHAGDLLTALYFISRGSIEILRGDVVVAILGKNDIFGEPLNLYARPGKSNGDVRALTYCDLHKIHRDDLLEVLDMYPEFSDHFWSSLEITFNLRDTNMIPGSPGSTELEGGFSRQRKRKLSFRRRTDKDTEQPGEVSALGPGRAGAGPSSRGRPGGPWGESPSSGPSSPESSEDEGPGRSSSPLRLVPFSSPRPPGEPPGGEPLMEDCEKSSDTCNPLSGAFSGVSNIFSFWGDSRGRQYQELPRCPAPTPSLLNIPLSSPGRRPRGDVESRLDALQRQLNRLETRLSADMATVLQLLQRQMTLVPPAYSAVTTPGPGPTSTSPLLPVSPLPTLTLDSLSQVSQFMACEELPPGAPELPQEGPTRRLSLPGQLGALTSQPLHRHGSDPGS
row,Compound,"hERG current change (%, negative = inhibition) at 1uM [%]"
1,COc1ccc(N(CC(=O)NC(C)(C)C)C(=O)CCC(=O)Nc2nccs2)c(OC)c1,12.3
2,COC(=O)C1Sc2[nH]c(=O)sc2C(c2ccc(Cl)cc2)C1C(=O)OC (centres unmarked),-20.6
3,CCN(C(=O)/C=C/c1ccccc1)C1CCCCC1,13.6
4,NS(=O)(=O)c1ccc(CCNC(=O)Cc2ccc(S(=O)(=O)N3CCOCC3)s2)cc1,9.98
5,Cc1ccnc(N2CCC(C(=O)Nc3ccc4c(c3)CCC4)CC2)n1,19.7
6,CC(C)c1ccc(C2C3=C(CC(C)(C)CC3=O)NC3=C2C(=O)c2ccccc23)cc1 (centres unmarked),11.1
7,Cc1cc([N+](=O)[O-])nn1CC(=O)N1N=C(C(F)F)CC1(O)C(F)F (centres unmarked),14.9
8,CC12COC3(C(N)=O)CC1CCC32C (centres unmarked),-1.02
9,COc1ccc2[nH]cc(C(=O)CCl)c2c1,11
10,Cc1ccc(NC(=O)CN(C)C(=O)c2cccc(S(=O)(=O)N3CCc4ccccc43)c2)cc1,6.51
11,COc1ccc(/C=C/c2ccccc2)cc1[C@H]1[C@H]2C=CC[C@@H](C)[C@@H]2C(=O)N1Cc1ccccc1,16.8
12,Cc1ccccc1N1CCN(C2CCCN(C(=O)c3ccsc3)C2)CC1 (centres unmarked),-9.94
13,COc1ccc(N2CCN(CCS(=O)(=O)c3cc(Cl)ccc3Cl)CC2)cc1,1.6
14,COCCNC(=O)c1cc(S(=O)(=O)N2CCOCC2)ccc1SCc1cccc(OC)c1OC,5.16
15,Cc1ccc(NC2CCCN(C(=O)CCN3CCCCO3)C2)cc1C (centres unmarked),6.44
16,CC1(C)Cc2c(sc(NC(=O)c3ccc4c(c3)OCCO4)c2C(N)=O)C(C)(C)N1,8.57
17,O=C1C2(CCCC13COC(c1ccc(O)cc1)OC3)COC(c1ccc(O)cc1)OC2 (centres unmarked),14.1
18,Cc1ccccc1Nc1c(-c2ccc(N3CCOCC3)cc2)nc2cnccn12,13.5
19,COc1ccc(-n2nc3c(N4CCC(C(=O)N5CCCCCC5)CC4)nnc(C)c3c2C)cc1,0.592

row,Compound,"hERG current change (%, negative = inhibition) at 1uM [%]"
1,COc1ccc(Cl)cc1NC(=S)NCCO,11.6
2,Cc1ccc(Cl)cc1N1CCN(C(=O)COc2ccc3c(c2)CCC3)CC1,11.3
3,CSc1nc(C)cc(/C=C\c2ccccc2)c1C#N,7.95
4,Cc1cc(NC(=O)C2CCCCC2C(=O)O)ccc1NC(=O)c1ccccc1 (centres unmarked),0.369
5,Cn1c(=O)[nH]c(=O)c2c1nc(NCCO)n2CCOc1ccccc1,8.91
6,Nc1nc(SCC(=O)N2CCN(S(=O)(=O)c3ccc(Cl)cc3)CC2)n[nH]1,19.1
7,COc1nc(Oc2ccc(C(=O)OCC(N)=O)cc2)nc(N(C)C)n1,12.2
8,O=C(CCCN1C(=O)c2ccccc2C1=O)Nc1ccc(S(=O)(=O)N2CCCCC2)cc1,-3.33
9,CN1C(CC(O)c2ccccc2)CCCC1CC(O)c1ccccc1.Cl (centres unmarked),-46.3
10,Cc1ccc(C)c(S(=O)(=O)N2CCN(C(=O)CNC(=O)c3ccc4ccccc4c3)CC2)c1,7.43
11,CC(C)(C)c1ccc(/C=N/NC(=O)C[n+]2ccccc2)cc1.[Cl-],11.9
12,CC1(C)OC(=O)C(=CNCCc2ccc(O)cc2)C(=O)O1,18.5
13,CC(=O)NC(Cc1c[nH]c2ccccc12)C(=O)OCC(=O)Nc1ccc2c(c1)OCO2 (centres unmarked),12.4
14,Cc1ccc2nc(N3CCC(C(=O)N4CCC5(CC4)OCCO5)CC3)sc2c1,-0.516
15,CCCCN(C)S(=O)(=O)c1ccc(C(=O)N=c2sc3cc(NC(C)=O)ccc3n2C)cc1,13.8
16,CC(=O)c1cc(-c2ccccc2)n(CC(=O)Nc2cc(C)cc(C)c2)c1C,18.5
17,O=C(O)CCCn1c(O)c(C=C2N=c3ccccc3=N2)sc1=S,13.7
18,O=C(c1cccnc1NCc1ccc(F)cc1)N1CCOCC1,5.16
19,Cl.O=C(c1ccccc1)c1coc2ccc(O)c(CN3CCOCC3)c12,-21

row,Compound,"hERG current change (%, negative = inhibition) at 1uM [%]"
1,CCOc1ccc(CNC(=O)CCS(=O)(=O)Cc2cccc(Cl)c2)cc1OC,1.14
2,O=C1NC(O)(c2ccccc2)Oc2ccccc21 (centres unmarked),16.3
3,COc1ccc(CCNC(=O)c2n[nH]c(=O)c3ccccc23)cc1,16.9
4,CNS(=O)(=O)c1ccc(NC(=O)C2CC(=O)N(c3ccc(Cl)cc3)C2)cc1 (centres unmarked),8.98
5,CCC1(C(=O)OC)NC(c2ccccc2OC)C2C(=O)N(C)C(=O)C21 (centres unmarked),16
6,S=C(NCc1ccco1)N1CCN(Cc2ccc(Cl)cc2Cl)CC1,1.56
7,O=C(c1cnsn1)N1CCN(c2ccccc2)CC1,6.62
8,CCCC(C(=O)n1nc(C)cc1C)C(NS(=O)(=O)c1ccc(C)cc1)c1ccccc1 (centres unmarked),13.7
9,COc1ccc(CNC(=O)Nc2ccc(C)cc2)cc1,11.2
10,COc1ccc2[nH]c(CN3CCN(CC=C(C)C)C(CCO)C3)c(C)c2c1 (centres unmarked),10.7
11,CCOC(=O)C1CCN(Cc2ccc(OC)c(C)c2OC)CC1,10.3
12,Cc1ccccc1NC(=O)NC1CCS(=O)(=O)C1 (centres unmarked),13.3
13,O=C1CC(Cc2ccc(Cl)cc2)C(=O)N1c1ccccn1 (centres unmarked),9.22
14,Cc1c(NC(=O)C(=O)/C=C(\O)c2ccc(Cl)cc2)c(=O)n(-c2ccccc2)n1C,7.69
15,CCN(CC)P(=O)(NC(=O)c1cccn1C)N(CC)CC,1.32
16,CCOC(=O)c1c(C)n(C)c2ccc(O)c(S(=O)(=O)c3ccccc3)c12,-4.53
17,Cn1c(=O)cc(SCC(=O)Nc2ccccn2)c2ccccc21,11.4
18,Cc1cc2ccccn2c1C(=O)c1ccccc1F,8.39
